Data reported in PubChem BioAssay AID1347165 (National Center for Advancing Translational Sciences (NCATS), 2019).
About 5,700 (2.6%) of roughly 220,000 compounds were called active. This list was built around the results that the source calls inconclusive (neither active nor inactive); the mix of calls is not that of the screen. Calls come from the whole dose curve; as a rule, active = well fitted inhibition curve with a large enough effect; inconclusive = small, poorly fitted or top-dose-only effect; inactive = no such curve, though single readings can be large or run the other way. Potencies beside an inconclusive call are fits to weak or partial responses and may not hold up.

target: Lysine-specific demethylase 5B (Homo sapiens) (UniProt Q9UGL1); assay: Primary screen for KDM5B Histone Demethylases FDH-coupled qHTS; settings: FDH-coupled NADH fluorescence (FDH is formaldehyde dehydrogenase); activity change, negative = inhibition: at 57.7 µM (top of the series) unless noted; note: nearly all actives have a fitted effect of over 70% in size; for activity change, negative = inhibition: 0% is about no effect
How it was run: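 Measured: NADH fluorescence change, 30 min, RT. System: KDM5BΔAP 200 nM final, H3K4me3 peptide, α-KG, Fe(II), ascorbate, NAD⁺ plus FDH, pH 7.5 HEPES. Compounds: titrated, 10 min pre-incubation with enzyme.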
Potency is the fitted concentration of half-maximal effect; tags give direction and shape of the fitted curve.

Chain of UniProt Q9UGL1 (Q9UGL1 whole entry, looked up): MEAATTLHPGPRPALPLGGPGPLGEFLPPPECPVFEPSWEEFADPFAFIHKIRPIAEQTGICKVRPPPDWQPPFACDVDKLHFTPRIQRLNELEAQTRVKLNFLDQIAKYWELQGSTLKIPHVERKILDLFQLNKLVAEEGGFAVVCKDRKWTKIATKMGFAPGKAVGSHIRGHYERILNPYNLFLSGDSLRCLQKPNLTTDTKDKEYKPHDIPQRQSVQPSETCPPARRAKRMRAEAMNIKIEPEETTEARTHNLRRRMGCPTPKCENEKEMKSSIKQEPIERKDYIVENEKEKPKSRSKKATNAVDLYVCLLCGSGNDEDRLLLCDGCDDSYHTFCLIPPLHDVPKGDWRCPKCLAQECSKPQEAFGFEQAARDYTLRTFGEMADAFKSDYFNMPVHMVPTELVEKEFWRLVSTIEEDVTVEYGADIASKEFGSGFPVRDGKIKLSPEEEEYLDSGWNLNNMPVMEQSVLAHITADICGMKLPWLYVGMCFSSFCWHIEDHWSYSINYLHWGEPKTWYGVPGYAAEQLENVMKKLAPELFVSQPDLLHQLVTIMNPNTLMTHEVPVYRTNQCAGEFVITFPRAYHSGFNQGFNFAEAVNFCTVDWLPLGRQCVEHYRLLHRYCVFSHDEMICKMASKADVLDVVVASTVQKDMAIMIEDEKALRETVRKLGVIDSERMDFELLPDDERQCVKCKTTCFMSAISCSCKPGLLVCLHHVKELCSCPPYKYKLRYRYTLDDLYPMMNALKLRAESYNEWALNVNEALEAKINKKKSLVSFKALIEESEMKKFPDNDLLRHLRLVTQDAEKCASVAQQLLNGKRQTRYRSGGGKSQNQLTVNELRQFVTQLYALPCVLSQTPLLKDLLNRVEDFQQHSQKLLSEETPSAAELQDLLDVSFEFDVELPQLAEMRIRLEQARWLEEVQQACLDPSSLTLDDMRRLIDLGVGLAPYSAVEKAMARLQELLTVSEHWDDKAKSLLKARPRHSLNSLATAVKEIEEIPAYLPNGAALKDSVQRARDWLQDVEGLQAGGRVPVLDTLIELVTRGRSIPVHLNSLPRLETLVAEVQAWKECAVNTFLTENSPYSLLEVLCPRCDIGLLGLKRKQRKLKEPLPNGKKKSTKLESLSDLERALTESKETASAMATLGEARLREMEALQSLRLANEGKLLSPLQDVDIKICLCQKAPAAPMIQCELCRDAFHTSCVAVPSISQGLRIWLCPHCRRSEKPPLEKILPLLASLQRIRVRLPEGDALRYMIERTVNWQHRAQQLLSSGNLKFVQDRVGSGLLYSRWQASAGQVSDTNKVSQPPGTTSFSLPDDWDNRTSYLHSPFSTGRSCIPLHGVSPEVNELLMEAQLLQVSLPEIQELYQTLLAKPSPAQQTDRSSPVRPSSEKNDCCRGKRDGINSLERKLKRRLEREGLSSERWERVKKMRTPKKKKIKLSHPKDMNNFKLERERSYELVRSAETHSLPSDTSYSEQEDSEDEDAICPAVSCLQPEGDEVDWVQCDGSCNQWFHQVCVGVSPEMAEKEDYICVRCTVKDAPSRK

| SMILES | Potency | activity change, negative = inhibition |
| --- | --- | --- |
| CC(C)c1nc2c(c(-c3ccc(O)cc3)n1)CN(CC1CCCCC1)CC2 | inconclusive: 28.2 µM [inhibitor, single point] | – |
| N#CC1=C(N)Oc2c(c(=O)[nH]c3ccccc23)C1c1ccc(Br)cc1 (configuration not stated) | inconclusive: 10 µM [inhibitor, partial curve, poor fit] | – |
| N#Cc1ccc(CSc2nnc(-c3c[nH]c4ccccc34)o2)cc1 | inactive | – |
| O=C(NCC1CC1)c1ccc(F)cc1 | inactive | – |
| C[C@]1(CO)[C@H]2Cc3sc(NC(=O)c4ccco4)nc3[C@@H](CC(=O)NC3CC3)[C@]2(C)CC[C@H]1O | inconclusive: 28.2 µM [inhibitor, single point] | – |
| CS(=O)(=O)N(CC(=O)Nc1cc(C(F)(F)F)ccc1Cl)Cc1ccccc1 | inactive | – |
| Cc1cc(C)c(S(=O)(=O)NCc2csc(-c3ccccc3)n2)c(C)c1 | inconclusive: 28.2 µM [inhibitor, single point] | – |
| Cc1nonc1C1CCCN1c1ccc(-c2nc(COc3ccccc3)no2)cn1 (configuration not stated) | active: 28.2 µM | – |
| COCCN1Cc2ccc(NCC(C)C)nc2C(C)(C(=O)NC2CC2)C1 (configuration not stated) | active: 31.6 µM | – |
| CCc1ccccc1N(C)C(=O)c1nn(C)c2c1CSc1ccccc1-2 | inconclusive: 25.1 µM [inhibitor, single point] | – |
| N[C@@H]1CC[C@H](C(=O)NCc2csc(N3CCCC3)n2)C1 | inconclusive: 15.8 µM [inhibitor, partial curve, poor fit] | – |
| O=C(c1cc(-c2cccs2)nc2ccccc12)N1CCN(C(=O)C2CC2)CC1 | inconclusive: 22.4 µM [inhibitor, partial curve, poor fit] | – |
| CC(=O)N[C@@H]1CN(Cc2ccc(F)c(Br)c2)C[C@H]1CO | inconclusive: 12.6 µM [inhibitor, partial curve, poor fit] | – |
| CCc1ccc(OC(=O)c2ccccc2Br)cc1 | inactive | – |
| C[C@]1(O)CCN(C(=O)c2cnn3cc(CCO)cnc23)C[C@@H]1O | inconclusive: 22.4 µM [inhibitor, single point] | – |
| CCOc1cccc2cc(-c3nc(-c4ccc(OC)c(F)c4)no3)c(=O)oc12 | inactive | – |
| S=C1NC2=C(CCc3ccccc32)C(c2ccc(Cl)cc2)N1 (configuration not stated) | inconclusive: 17.8 µM [inhibitor, partial curve, poor fit] | – |
| Cc1ccccc1C(=O)NC1(C(F)(F)F)N=C(c2ccccc2)N(Cc2ccccc2)C1=O (configuration not stated) | – | inconclusive: -34.4% [inhibitor] |
| COc1ccc(Cl)cc1NC(=O)CCc1ncc(-c2ccc(C)cc2)o1 | inconclusive: 25.1 µM [inhibitor, single point] | – |
| O=C(c1ccc(F)cc1)N1CCN(Cc2c[nH]c3ccccc23)CC1 | inconclusive: 28.2 µM [inhibitor, single point] | – |
| Cc1cc(Cl)ccc1-c1ccccc1CN | inactive | – |
| CCN1CCN(C(=O)C2CCCN(Cc3cccnc3)CCC(=O)NCC2)CC1 (configuration not stated) | inactive | – |
| O=C(c1ccoc1)N1CCC(Oc2ccccc2-c2nc(C3CCOCC3)no2)C1 (configuration not stated) | inconclusive: 20 µM [inhibitor, single point] | – |

| SMILES | Potency | activity change, negative = inhibition |
| --- | --- | --- |
| O=C(c1ccc(F)cc1)N1CCN(c2nnc3ccccn23)CC1 | active: 28.2 µM | – |
| O=C(Cc1cc(=O)oc2cc(O)ccc12)N[C@@H](Cc1c[nH]c2ccccc12)C(=O)O | inconclusive: 25.1 µM [inhibitor, partial curve, poor fit] | – |
| O=C(NCCc1ccccc1)C(=O)c1cn(CC(=O)N2CCCC2)c2ccccc12 | inconclusive: 3.16 µM [inhibitor, full curve, poor fit] | – |
| CN1CCN(c2cc(=O)c3ccnc(-c4ccccc4O)c3o2)CC1 | inconclusive: 31.6 µM [inhibitor, partial curve, poor fit] | – |
| COc1ccc(C2OCC3OC(OC)C(OCc4ccccc4)C(O)C3O2)cc1 (configuration not stated) | inactive | – |
| COc1ccc(Cn2ccc3nc(C)c(C(=O)N4CCN(c5ccccc5F)CC4)cc3c2=O)cc1 | inconclusive: 28.2 µM [inhibitor, partial curve, poor fit] | – |
| CCN(C(=O)Cn1nc(-c2ccc(Br)cc2)ccc1=O)c1cccc(C)c1 | inactive | – |
| COc1ccccc1NC(=O)CCc1c[nH]c2ccccc12 | inactive | – |
| Cc1cc(OCC(=O)O)c(C)c2c1CC[C@@H]([C@H](C)C(=O)N1CCC(O)CC1)C2 | inconclusive: 56.2 µM [inhibitor, single point] | – |
| COc1cc(/C=C2\CCCc3c2nc2ccccc2c3C(=O)O)cc(Cl)c1O | inconclusive: 39.8 µM [inhibitor, partial curve, poor fit] | – |
| CN(C)CC(C)(C)Cn1ccnc1-c1cn(C2CCNCC2)nn1 | inconclusive: 20 µM [inhibitor, partial curve, poor fit] | – |
| Cc1cccc(OCC(=O)Nc2ccc3oc(-c4ccccc4F)nc3c2)c1 | inconclusive: 35.5 µM [inhibitor, partial curve, poor fit] | – |
| COc1ccc(-c2nc3cc(C(C)C)ccc3o2)cc1NC(=O)c1ccc(C)c(Cl)c1 | inconclusive: 25.1 µM [inhibitor, single point] | – |
| CCS(=O)(=O)N1CCC(Nc2cccnc2)C1 (configuration not stated) | active: 22.4 µM | – |
| CCc1ccc(NC(=O)C2CCN(S(=O)(=O)c3c(C)noc3/C=C/c3ccco3)CC2)cc1 | inconclusive: 2.51 µM [inhibitor, partial curve, poor fit] | – |
| COc1ccc(C(CNC(=O)c2cccc3c(=O)c(C)c(-c4ccccc4)oc23)N(C)C)cc1 (configuration not stated) | inactive | – |
| Cc1ccc(C)c(N2N=C(C(=O)Nc3cccc(S(=O)(=O)N4CCCCC4)c3)CCC2=O)c1 | inconclusive: 39.8 µM [inhibitor, single point] | – |
| CC(C)CC(NC(=O)c1cnc2ccccc2c1)c1nnc2n1CCNCC2 (configuration not stated) | inactive | – |
| CCOC(=O)C1CCN(C(=O)c2ccc3c(c2)sc2nc(-c4ccc(C)cc4)cn23)CC1 | inconclusive: 2 µM [inhibitor, full curve, poor fit] | – |
| O=C(c1cnc2sccn2c1=O)N1CCn2nc(C(O)C3CC3)cc2C1 (configuration not stated) | inconclusive: 31.6 µM [inhibitor, single point] | – |
| COc1cc(-c2cc(C)c3cccc(OC)c3n2)cc2c1OCCN(C(=O)CCN)C2 | active: 28.2 µM | – |
| COCc1nc(C2CCN(C(=O)c3n[nH]c4ccccc34)C2)no1 (configuration not stated) | inactive | – |
| CC(C)(C)C(=O)Nc1nc2c(s1)C[C@@H]1[C@](C)(CO)[C@H](O)CC[C@@]1(C)[C@@H]2CC(=O)NCc1ccco1 | inconclusive: 15.8 µM [inhibitor, partial curve] | – |

| SMILES | Potency | activity change, negative = inhibition |
| --- | --- | --- |
| CC1CCCN(CC2CCCCCN2)C1 (configuration not stated) | inconclusive: 25.1 µM [inhibitor, partial curve, poor fit] | – |
| COc1ccccc1Cn1c(C(C)NC(=O)c2ccco2)nc2ccccc21 (configuration not stated) | inactive | – |
| COc1ccc(-n2[nH]c(C)c(Cc3ccccc3Cl)c2=O)cc1 | inconclusive: 12.6 µM [inhibitor, partial curve, poor fit] | – |
| O=C(Nc1cccnc1)c1ccc2c(c1)OCCN(c1cccc(OC(F)(F)F)c1)C2 | inactive | – |
| CN(C)[C@@H]1C[C@H](Cn2cc(-c3cccnc3)nn2)[C@@H](O)[C@H]1O | inconclusive: 56.2 µM [inhibitor, single point] | – |
| CC(SC1CCCC1)C(=O)Nc1ccc(Cl)cc1Cl (configuration not stated) | inactive | – |
| COc1ccc(Oc2coc3cc(OC(C)C(=O)OC(C)C)ccc3c2=O)cc1 (configuration not stated) | inactive | – |
| O=C(Nc1ccc2c(c1)OCCO2)N1c2ccccc2CC1c1nc(C2CC2)no1 (configuration not stated) | inconclusive: 35.5 µM [inhibitor, single point] | – |
| Cn1c(=O)c2ccccc2n2c(CCl)nnc12 | inconclusive: 39.8 µM [inhibitor, single point] | – |
| CCOC(=O)c1ccc2c(c1)[C@@H]1C=CC[C@@H]1[C@H](c1cccc(OC)c1OC)N2 | inconclusive: 31.6 µM [inhibitor, partial curve, poor fit] | – |
| COc1ccccc1-c1cnc(NC(=O)c2cnccn2)c2c1CCO2 | active: 35.5 µM | – |
| Cc1ccccc1-c1nc(C#N)c(NCc2ccccc2Cl)o1 | inconclusive: 8.91 µM [inhibitor, full curve, poor fit] | – |
| CCCC(=O)C1=C(c2cccc(OC)c2)N(C(=O)CCC)n2c(C)nnc2S1 | inconclusive: 6.31 µM [inhibitor, partial curve, poor fit] | – |
| Fc1ccc(SCCc2ccccn2)cc1 | inconclusive: 22.4 µM [inhibitor, single point] | – |
| CN1c2cc(C(=O)Nc3ccc(Oc4ccccc4)cc3)ccc2C(=O)N2CCCCC21 (configuration not stated) | inconclusive: 25.1 µM [inhibitor, partial curve, poor fit] | – |
| Cc1ccc(CN(C)C(=O)c2ccc3ncsc3c2)o1 | inactive | – |
| Cc1cc(C)c2sc(N(Cc3cccnc3)C(=O)CCOc3ccccc3)nc2c1 | inconclusive: 1.12 µM [inhibitor, full curve, poor fit] | – |
| N#Cc1ccnc(-c2nnc3ccc(NC4CC4)nn23)c1 | inconclusive: 31.6 µM [inhibitor, single point] | – |
| COc1ccc(CCNC(=O)c2c(C)noc2-c2ccc3c(c2)OCO3)cc1OC | active: 28.2 µM | – |
| O=C(NN=C1C2CC3CC(C2)CC1C3)c1ccccc1O | inconclusive: 39.8 µM [inhibitor, single point] | – |
| O=S(=O)(c1ccc2c(c1)OCCO2)c1nc(-c2ccccc2F)oc1N1CCOCC1 | inconclusive: 39.8 µM [inhibitor, single point] | – |
